Reference: the supplement of paper PMC10441789
The list shows a part of the results. Antibody binding of pooled human sera (four to six donors per pool; dilution not stated) to peptides of the Trypanosoma cruzi antigen TSSA on microarrays. Quantile-normalised fluorescence in arbitrary units, mean of duplicate arrays; higher = more binding. No active / inactive call. The uninfected pools are read here as the healthy donors of the same country. The strongest signals lie near the top of the scale (about 60,000).

test system: pooled sera of uninfected people, Colombia; experiment: antibody binding signal (normalised fluorescence) (arbitrary fluorescence units); higher = stronger serum antibody binding to peptide
Description: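 Microarray of 15-residue peptides over residues 30-55 of Trypanosoma cruzi TSSAII, each with 1 to 10 substitutions at naturally variable positions, probed with one serum pool per country.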

| Sequence | antibody binding signal |
| --- | --- |
| SGKENKAATGEAPSQ | 526 |
| KDNKAAAGEAPSPPG | 146 |
| KDKKPAAGGTPSQPG | 131 |
| GKDNKPATGETPSQP | 316 |
| KEKKPATGGTPSQPG | 111 |
| GKENKPATGETPSPS | 250 |
| GTENKTAAGGAPSQS | 310 |
| KKPATGGAPSQSGAS | 103 |
| KEKKTAAGGTPSQPG | 178 |
| KDKKTAAGGTPSPSG | 137 |
| GKDNKAAAGETPSQS | 225 |
| KDKKTATGETPSQSG | 74.8 |
| GTENKPATGEAPSPS | 173 |
| SGKDKKTAAGETPSQ | 528 |
| DKKPATGGTPSQPGA | 256 |
| GKDNKAAAGGAPSQS | 141 |
| TISTPPSGKDNKAAT | 175 |
| SGKEKKTATGEAPSQ | 125 |
| GTENKAAAGGTPSQP | 315 |
| TDNKTAAGEAPSPSG | 155 |

| Sequence | antibody binding signal |
| --- | --- |
| GKDKKAATGGAPSQP | 256 |
| KEKKAATGETPSPPG | 172 |
| GKENKTATGETPSPS | 212 |
| GTEKKPAAGGAPSPP | 101 |
| DKKPAAGETPSPSGA | 221 |
| GKDKKAAAGGTPSPS | 127 |
| TDNKPATGGTPSPSG | 847 |
| SSTPPSGKENKAAAG | 772 |
| GKDKKPAAGEAPSPS | 91.5 |
| GKENKPAAGETPSPP | 204 |
| STPPSGTDKKTATGE | 229 |
| GTEKKPATGGTPSQP | 214 |
| NKAAAGGTPSQPGAS | 539 |
| GKDKKPAAGEAPSQS | 80 |
| KDKKTATGGTPSPPG | 105 |
| PSGTENKPATGGTPS | 513 |
| PPSGTEKKTATGGTP | 579 |
| NKPAAGGAPSPSGAS | 366 |
| GTDNKTATGGTPSQP | 189 |
| TSSTPPSGTENKAAA | 878 |
